PubChem BioAssay AID624296 (National Center for Advancing Translational Sciences (NCATS), 2012)
Hit rate of the full screen: of about 350,000 compounds, about 9,900 (2.8%) were called active. The shares of active, inactive and inconclusive entries below differ from those in the screen. Calls follow the shape of the dose curve; as a rule, active = well fitted activation curve with a large enough effect; inconclusive = small, poorly fitted or top-dose-only effect; inactive = no such curve, though single readings can be large or run the other way. No potency is given beside an inconclusive call; the fits are too rough.

test: A quantitative high throughput screen for small molecules that induce DNA re-replication in MCF 10a normal breast cells.; also: nearly all actives have a fitted effect of over 50% in size; conditions: MCF 10A DNA re-replication, Hoechst nuclear intensity, 48 h; series mostly up to 46.1 µM
Potency is read from the fitted curve at half-maximal effect; tags tell the direction and shape of the fitted curve.

Question: Which Potency does the source give for CN(C)CCCNCC(=O)NN(c1ccccc1)c1ccccc1 here?
Answer: inconclusive [activator, partial curve, poor fit]

Question: Which Potency does the source give for CCCc1cc(=O)oc2cc(C)cc(OCC(=O)NCc3ccccn3)c12 here?
Answer: inactive

Question: For O=C(NC(Cc1ccccc1)C(=O)NC(Cc1ccccc1)C(=O)O)c1ccccc1 (centres undefined), which Potency is on record?
Answer: inactive

Question: For c1cc2c3c(cccc3c1)C(N1CCOCC1)=N2, which Potency is on record?
Answer: inconclusive [activator, single point]

Question: For Cc1cc2nc3n(c2cc1C)CC1CC(C(=O)NCC2CC2)N(C)C31 (centres undefined), which Potency is on record?
Answer: inactive

Question: Which Potency does the source give for O=C(O)c1cc(S(=O)(=O)Nc2ccc(OCc3ccccc3)cc2)ccc1Br here?
Answer: inactive

Question: With Cc1cc(NC(=O)CCN2CCN(C/C=C/c3ccccc3)CC2)ccc1Br as the compound, how does the Potency read?
Answer: inconclusive [activator, single point]

Question: With Cc1ccccc1COC(=O)c1cc([N+](=O)[O-])ccc1N1CCOCC1 as the compound, how does the Potency read?
Answer: inconclusive [activator, single point]

Question: Which Potency does the source give for CCOc1ccc(/C=C/C(=O)c2ccccc2)cc1OC here?
Answer: inconclusive [activator, single point]

Question: With CCn1c(SCC(=O)c2ccc(O)c(O)c2)nnc1-c1ccccc1OC as the compound, how does the Potency read?
Answer: inconclusive [activator, partial curve, poor fit]

Question: For CCOC(=O)c1cc2c(s1)-c1c(C)cccc1OC2, which Potency is on record?
Answer: inconclusive [activator, partial curve, poor fit]

Question: Which Potency does the source give for Cc1nc2nc(C)n(CCN3CCOCC3)c(=O)c2c(-c2cccc([N+](=O)[O-])c2)c1C(=O)CCCCCCCCCCN1CCC(c2ccccc2)(c2ccccc2)CC1 here?
Answer: inconclusive [activator, partial curve]

Question: With CN(c1ccccc1)S(=O)(=O)c1ccc(NC(=O)c2nc(S(C)(=O)=O)ncc2Cl)cc1 as the compound, how does the Potency read?
Answer: inconclusive [activator, full curve, poor fit]

Question: For O=C(CSc1nc(C2CCCCC2)nc2ccccc12)NCc1ccco1, which Potency is on record?
Answer: inactive

Question: For CC1CCN(S(=O)(=O)Cc2ccccc2Cl)CC1, which Potency is on record?
Answer: inconclusive [activator, partial curve, poor fit]

Question: Which Potency does the source give for CC(C)=CCCC(C)CN1CCC(N2CCC(C(=O)NC(C)C)CC2)CC1 (centres undefined) here?
Answer: inactive

Question: With CCOc1ccccc1NC(=O)c1cccc(S(=O)(=O)N(Cc2ccccc2)c2ccccc2OC)c1 as the compound, how does the Potency read?
Answer: inconclusive [activator, single point]

Question: With CC(=O)Nc1ccc(S(=O)(=O)N2CCN(C(C)CCc3ccccc3)CC2)cc1 (centres undefined) as the compound, how does the Potency read?
Answer: inconclusive [activator, partial curve, poor fit]

Question: Which Potency does the source give for O=C(c1ccco1)c1nnn(Cc2ccccc2)c1-c1ccccc1 here?
Answer: inconclusive [activator, partial curve, poor fit]

Question: For O=[N+]([O-])c1cc(S(=O)(=O)Nc2ccccc2)ccc1N1CCN(c2ccccc2)CC1, which Potency is on record?
Answer: inconclusive [activator, single point]

Question: With Cc1ccccc1NC(=S)NC(NC(=O)c1ccccc1C)C(Cl)(Cl)Cl (centres undefined) as the compound, how does the Potency read?
Answer: inactive

Question: Which Potency does the source give for Cc1ccc(Nc2nc(NCc3ccco3)c3ccccc3n2)cc1 here?
Answer: inconclusive [activator, single point]

Question: Which Potency does the source give for Clc1cccc(CON/C=N/c2ncnc3sccc23)c1 here?
Answer: inconclusive [activator, single point]

Question: With OCCC1CN(Cc2nc(-c3ccccc3)cs2)CCN1Cc1ccc(F)cc1 (centres undefined) as the compound, how does the Potency read?
Answer: inconclusive [activator, single point]

Question: Which Potency does the source give for CCn1cc(C(=O)N[C@H](C(=O)NC(C)(C)CO)C(C)C)c(=O)c2cc3c(cc21)OCO3 here?
Answer: inconclusive [activator, partial curve]

Question: For O=C(NNC(=O)C12CC3CC(CC(Cl)(C3)C1)C2)c1csc(N2CCOCC2)n1, which Potency is on record?
Answer: inconclusive [activator, partial curve, poor fit]

Question: With NC(=O)Nc1ccc(C(=O)OCC(=O)Nc2cccc(S(=O)(=O)NC3=NCCCCC3)c2)cc1 as the compound, how does the Potency read?
Answer: inactive

Question: Which Potency does the source give for CC(C)C(=O)NC(=S)Nc1ccc(S(=O)(=O)Nc2ccccc2)cc1 here?
Answer: inconclusive [activator, single point]

Question: With N=c1c2ccccc2nc2n1CCCCCCCCCCC2 as the compound, how does the Potency read?
Answer: inconclusive [activator, full curve, poor fit]

Question: Which Potency does the source give for O=C(c1ccc2c(=O)n(Cc3ccccc3Cl)c(=S)[nH]c2c1)N1CCOCC1 here?
Answer: inactive

Question: With COc1cc(C(=O)NCC(c2cccs2)N(C)C)cc(Cl)c1OC(C)C (centres undefined) as the compound, how does the Potency read?
Answer: inconclusive [activator, single point]

Question: With CCCNC(=O)CSc1nc2ccc(OCC)cc2s1 as the compound, how does the Potency read?
Answer: inconclusive [activator, single point]

Question: With Clc1ccccc1Cn1nnc2ccccc21 as the compound, how does the Potency read?
Answer: inactive

Question: For N#Cc1nc(-c2ccc(OCc3ccccc3)cc2)oc1NCc1ccco1, which Potency is on record?
Answer: inconclusive [activator, partial curve, poor fit]

Question: For COc1ccc(-n2ncc3c(NCC4CCCO4)ncnc32)cc1 (centres undefined), which Potency is on record?
Answer: inconclusive [activator, single point]

Question: With COc1cc(O)c2c(=O)c3c(O)c(O)ccc3oc2c1OC as the compound, how does the Potency read?
Answer: inactive

Question: For C[C@H](CO)N1C[C@H](C)[C@@H](CN(C)Cc2ccc(C(=O)O)cc2)Oc2c(NS(=O)(=O)c3cn(C)cn3)cccc2C1=O, which Potency is on record?
Answer: inconclusive [activator, partial curve]

Question: For Cc1ccc(-n2nc(-c3ccccc3)cc2Nc2ccccc2N)cc1, which Potency is on record?
Answer: inactive

Question: For O=C(COc1ccccc1)N1CCN=C1SCc1ccc(F)cc1, which Potency is on record?
Answer: inactive

Question: Which Potency does the source give for CCCn1c(SCC(=O)N2CCCC2)nc2c1c(=O)n(C)c(=O)n2C here?
Answer: inactive

Question: With Cc1ccc(S(=O)(=O)NC2CC(C)(C)NC(C)(C)C2)c(C)c1C as the compound, how does the Potency read?
Answer: inconclusive [activator, single point]

Question: For CC(C)=NNc1nc2sc3c(c2c(=O)[nH]1)CC(C)(C)OC3, which Potency is on record?
Answer: active: 11.6 µM

Question: For O=C(Nc1nnc(CC2=CCCCC2)s1)Nc1ccccc1F, which Potency is on record?
Answer: inconclusive [activator, single point]

Question: For CCOC(=O)c1oc2ccc(S(=O)(=O)n3nc(-c4ccc(C)cc4)cc3N)cc2c1C, which Potency is on record?
Answer: inactive

Question: With CCN(CC)CCC(c1cc(OC)c(OC)c(OC)c1)c1c(OC)cc(OC)c2c(C)cc(=O)oc12 (centres undefined) as the compound, how does the Potency read?
Answer: inactive

Question: With O=S(=O)(NC1=NCCCCC1)c1cccs1 as the compound, how does the Potency read?
Answer: inconclusive [activator, full curve, poor fit]

Question: With CC12CC3(C)CC(C)(C1)CC(C(=O)NC(=S)NC(C)(C)C)(C2)C3 as the compound, how does the Potency read?
Answer: inconclusive [activator, single point]

Question: For CCCN(Cc1ccccc1)C(=S)Nc1cccc(C(F)(F)F)c1, which Potency is on record?
Answer: inconclusive [activator, single point]

Question: With CCN(c1ccccc1)S(=O)(=O)c1ccc(C(=O)NCC2(N(C)C)CCCCC2)cc1 as the compound, how does the Potency read?
Answer: inconclusive [activator, partial curve]

Question: With Cc1c(C(=O)NCc2ccccn2)oc2ccc(Br)cc12 as the compound, how does the Potency read?
Answer: inconclusive [activator, single point]

Question: Which Potency does the source give for O=C(NC1CCCCC1)C1CC(=O)N(c2cccc([N+](=O)[O-])c2)C1 (centres undefined) here?
Answer: inactive

Question: With CC1(C)N=C(N)NC(Nc2ccccc2Cl)=N1 as the compound, how does the Potency read?
Answer: inconclusive [activator, single point]

Question: For COC(=O)c1cc(S(=O)(=O)N2CCN(c3ccc([N+](=O)[O-])cc3)CC2)c[nH]1, which Potency is on record?
Answer: inactive

Question: Which Potency does the source give for CCN1C(=O)c2ccc(C(=O)Nc3nccs3)cc2C1=O here?
Answer: inactive

Question: Which Potency does the source give for CS(=O)(=O)N1CCN(c2ccccc2NC(=O)c2ccc(Br)o2)CC1 here?
Answer: inconclusive [activator, partial curve, poor fit]

Question: Which Potency does the source give for O=C(Nc1ccc(-c2cn3ccsc3n2)cc1)c1ccc(F)c(S(=O)(=O)N2CCOCC2)c1 here?
Answer: inactive

Question: Which Potency does the source give for CCN1C(=O)[C@H]2[C@@H](c3ccc(C)cc3)N3C(=O)N(c4ccccc4)C(=O)[C@@]3(CC)[C@H]2C1=O here?
Answer: inconclusive [activator, full curve, poor fit]

Question: For COc1ccc2cc(C(=O)N3CCN(c4ccccc4OC)CC3)[nH]c2c1, which Potency is on record?
Answer: inconclusive [activator, partial curve, poor fit]

Question: For COc1ccccc1/C=C/C(=O)NCC(=O)N/N=C(/C)c1ccc(Cl)cc1, which Potency is on record?
Answer: inconclusive [activator, single point]

Question: With Cc1cc(-c2nnc3n2N=C(c2ccc(F)cc2)CS3)n[nH]1 as the compound, how does the Potency read?
Answer: inconclusive [activator, single point]

Question: Which Potency does the source give for CCNC(=O)N(C)C[C@H]1N[C@@](CC)(C(=O)OC)[C@H]2C(=O)N(C)C(=O)[C@@H]12 here?
Answer: inactive

Question: With O=C(Nc1ccc(F)cc1)Nc1nnc(Cc2ccccc2F)s1 as the compound, how does the Potency read?
Answer: inactive

Question: Which Potency does the source give for O=C(CSc1ccccc1)N1CCN(C(=O)c2ccco2)CC1 here?
Answer: inconclusive [activator, partial curve, poor fit]

Question: With CC(C(=O)Nc1ccc(S(=O)(=O)N2CCCC2)cc1)N1CCc2ccccc2C1 (centres undefined) as the compound, how does the Potency read?
Answer: inactive

Question: With CC1Cc2ccccc2N1C(=O)Cn1cnc2ccccc21 (centres undefined) as the compound, how does the Potency read?
Answer: inactive

Question: With N#C/C(=C\c1cccnc1)C(=O)NC1CCCCC1 as the compound, how does the Potency read?
Answer: inactive

Question: Which Potency does the source give for COc1cc(/C=C2\SC(=S)N(N3CCOCC3)C2=O)ccc1O here?
Answer: inactive

Question: For CCOC(=O)Cc1cc(-c2ccc(O)cc2)nc2ccc3ccccc3c12, which Potency is on record?
Answer: inconclusive [activator, single point]

Question: For CCOC(=O)c1cc(-c2ccc(OC)cc2)nc2c1c(C)nn2CCC(N)=S, which Potency is on record?
Answer: inconclusive [activator, single point]
